In PubChem BioAssay AID463173 (ICCB-Longwood Screening Facility, Harvard Medical School, 2010):
The whole screen tested about 52,000 compounds, of which about 1,700 (3.3%) were called active. Rule as the data show it: active = survival mostly below about 52% (no sharp cut-off); inactive = mostly above about 56%. This is one part of the list.

tested on: Wild type; assay: growth inhibition of S. aureus wild type versus tarO mutant, primary screen, teichoic acid synthesis inhibitors, RN4220, OD600 (AID 463173); details: S. aureus RN4220 wild type/DeltatarO growth, OD600, 18 h, stronger effect = lower value, screened at 18.75 µg/mL (by protocol)

SMILES | survival
COc1ccc(C(=O)Nc2nnc(S(=O)(=O)N3CCN(c4ccc(C)cc4)CC3)s2)cc1 | inactive: 79%
CC(Oc1ccccc1)C(=O)Nc1nnc(S(=O)(=O)N2CCCCCC2)s1 (configuration not stated) | inactive: 81%
COc1cccc(-c2cc(C(=O)Nc3ccc4c(c3)OCO4)no2)c1 | inactive: 90%
COc1ccc(-c2cc3nc(C)c(CCC(=O)Nc4ccc(F)cc4F)c(C)n3n2)c(OC)c1 | inactive: 75%
Cc1ccc(Oc2nc3c(c(=O)n(Cc4ccccc4Cl)c(=O)n3C)n2C)cc1C | inactive: 81%
COc1ccc(NC(=O)CSc2ccc(-c3cccs3)nn2)cc1 | inactive: 89%
COc1ccc(/C=C/C(=O)N2CCC(c3nc4ccccc4o3)CC2)cc1 | inactive: 91%
CCOc1ccc(C(=O)Nc2ccc(C(=O)OCc3cc(=O)n4nc(CC)sc4n3)cc2)cc1 | inactive: 73%
COC(=O)c1ccc(NC(=O)N2CCC(CN3CCc4ccccc4C3)CC2)cc1 | active: 1%
CCOC(=O)c1ccc(NS(=O)(=O)c2cn(C)c(C)n2)cc1 | inactive: 73%
CCS(=O)(=O)c1nc(S(=O)(=O)c2ccc(C)cc2)c(NCc2ccc(Cl)cc2)s1 | inactive: 86%
Cc1ccc(S(=O)(=O)N2CCCc3cc(NC(=O)c4ccc(F)c(F)c4)ccc32)cc1 | inactive: 66%
CCOc1ccc(N(CC)S(=O)(=O)N2CCCC(C(=O)Nc3ccc(NC(C)=O)cc3)C2)cc1 (configuration not stated) | inactive: 86%
O=C(COc1ccc2oc3c(c2c1)CCCC3)Nc1ccc(Cl)cc1 | inactive: 81%
CCOc1ccc(-c2c(C)nn3c(-c4ccccc4)c(C(=O)NCCOC)cnc23)cc1OCC | active: -6%
COc1cccc(C(=O)Nc2cc(-c3ccccc3)nn2-c2ccccc2)c1 | inactive: 69%
Cc1ccc(CCNC(=O)c2cc3cc4cc(C)ccc4nc3s2)cc1 | inactive: 64%
COc1ccc(NC(=O)N(C(C)C)C2CCN(C(C)=O)CC2)c(OC)c1 | active: -4%
CN(C)S(=O)(=O)N1CCC(n2cnc3cccnc32)CC1 | inactive: 113%
COc1ccccc1Cn1c(CNS(=O)(=O)c2ccc(CC(C)C)cc2)nc2cccnc21 | inactive: 76%
CC(=O)N1CC=C2C(C#N)=C(N)C(C#N)(C#N)C(C)C2C1 (configuration not stated) | inactive: 103%
CCOc1ccc(NC(=O)Cn2cc(C(=O)c3ccc(OCC)cc3)c(=O)c3cc4c(cc32)OCCO4)cc1 | inactive: 87%

SMILES | survival
COc1cccc(NC(=O)CN2C(=O)COc3ccc(S(=O)(=O)N4CCCCCC4)cc32)c1 | inactive: 97%
O=C1C2=C(Nc3ccccc3SC2c2ccc(Cl)c(Cl)c2)c2ccccc21 (configuration not stated) | inactive: 73%
CCc1ccc(NC(=O)CC2C(=O)N(c3ccc(C)cc3)C(=O)N2CCc2ccncc2)cc1 (configuration not stated) | inactive: 98%
COC(=O)Cc1c(C)c2cc3c(c(C)c2oc1=O)OCN(CCc1ccc(F)cc1)C3 | inactive: 82%
COc1cccc(N2C(=O)C(CC(=O)Nc3ccc(F)cc3)N(CCC3=CCCCC3)C2=O)c1 (configuration not stated) | inactive: 77%
COc1ccc(NC(=O)CN(C)S(=O)(=O)c2ccc(C(=O)N3CCOCC3)s2)cc1 | inactive: 73%
Nc1c(C(=O)NCc2ccc3c(c2)OCO3)nnn1CC(=O)Nc1ccc(Br)cc1 | inactive: 47%
Cc1cccc(C)c1OCC(=O)N1CCC(c2nc3ccccc3o2)CC1 | inactive: 81%
Cc1cccc(NC(=O)CSc2cn(CC(=O)N3CCCC3)c3ccccc23)c1C | inactive: 98%
CC(=O)N1CCCc2cc(S(=O)(=O)N3CCCC(C(=O)NCc4ccccc4)C3)ccc21 (configuration not stated) | inactive: 97%
Cc1ccc(Cn2cc(C(=O)c3ccc(C)cc3)c(=O)c3ccc(C)nc32)cc1 | active: 20%
CCc1ccc(-c2cc(C)no2)cc1S(=O)(=O)Nc1ccc(Cl)cn1 | active: -1%
Cc1cc(SCC(=O)Nc2ccc(Cl)cc2)nc2ccccc12 | inactive: 81%
Cc1cccc(N2CCN(C(=O)C3CCN(Cc4nc(-c5ccc(Cl)cc5)oc4C)CC3)CC2)c1C | inactive: 47%
COc1cc(OC)c(NC(=O)c2cc3c(s2)-c2ccc(Cl)cc2SC3)cc1Cl | inactive: 96%
Cc1cc(NC(=O)C2CCC(CNS(=O)(=O)c3ccc(Br)s3)CC2)ccc1Br (configuration not stated) | inactive: 92%
N#CCN(CC#N)C(=O)C1c2ccccc2Oc2ccccc21 | inactive: 110%
CCc1nn2c(-c3ccco3)ccnc2c1-c1ccccc1 | inactive: 89%
COc1ccc(C)cc1S(=O)(=O)Nc1cccc(-c2ccc(N3CCC(C)CC3)nn2)c1 | active: -4%
Cc1nonc1OCC(C)(N)COc1nonc1C | inactive: 101%
CCC1CN(C(=O)N2CCC(C(=O)NCc3cc(OC)ccc3OC)CC2)c2ccccc2O1 (configuration not stated) | inactive: 86%
O=C(NCC1COc2ccccc2O1)c1cn(Cc2ccc(F)cc2)nn1 (configuration not stated) | inactive: 107%

SMILES | survival
CCOC(=O)c1cc(S(=O)(=O)Nc2ccc(OC(F)(F)F)cc2)[nH]n1 | inactive: 87%
COc1ccc(NC(=O)CSc2nc(-c3ccc(OC)cc3)cc(=O)[nH]2)cc1 | inactive: 148%
Cn1c(C(=O)NCc2ccc(F)cc2)cc2cc(S(=O)(=O)N3CCCCC3)ccc21 | inactive: 131%
COc1ccc(-c2cc3ccc(O)c(CN4CCN(CCO)CC4)c3oc2=O)cc1OC | inactive: 80%
Cc1ccc(CSc2nnc(-c3ccc(O)cc3)o2)cc1 | inactive: 108%
O=C(Nc1cccc(Cl)c1Cl)c1cc2nc(-c3ccc4c(c3)OCO4)cc(C(F)(F)F)n2n1 | inactive: 64%
Cc1cccn2c(Nc3ccc4c(c3)OCCO4)c(-c3ccc(Br)o3)nc12 | inactive: 66%
CCN(C(=O)Cn1c(SCC(=O)NCc2ccccc2)nc2ccccc21)c1cccc(C)c1 | inactive: 65%
COC(=O)c1cc(S(N)(=O)=O)c(C)o1 | inactive: 110%
O=C(NCc1ccccc1Cl)c1cnc(N2CCCCC2)c2ccccc12 | inactive: 124%
COc1ccccc1NC(=O)c1oc2ccccc2c1NC(=O)c1ccc(S(=O)(=O)N(C)C)cc1 | inactive: 71%
COc1ccc(OC)c(CNC(=O)c2cc(-c3ccc(Cl)s3)nc3ccccc23)c1 | inactive: 88%
COc1cc(-c2nc3n(n2)C(c2ccc(F)cc2)C(C(N)=O)=C(C)N3)cc(OC)c1OC (configuration not stated) | inactive: 84%
Cc1ccc(-n2nc(C(=O)NCCc3cccc(C)c3)c3c4ccccc4n(C)c3c2=O)cc1 | inactive: 126%
N#CC(C#N)=C1c2ccccc2-c2nc(C#N)c(C#N)nc21 | inactive: 107%
Cc1ccc(CNC(=O)c2cc(C3CC3)nc3c2c(C)nn3-c2cccc(Cl)c2C)cc1 | inactive: 94%
CCCN(CCC)C(=O)c1c[nH]c2ccc(S(=O)(=O)Nc3cc(C)cc(C)c3)cc2c1=O | inactive: 83%
Cc1ccc(NC(=O)c2nc(S(=O)(=O)Cc3cccc(C)c3)ncc2Cl)cc1 | active: -1%
Cc1ccc(N2C(=O)c3oc4cc(C)c(C)cc4c(=O)c3C2c2cccc(O)c2)nc1 (configuration not stated) | inactive: 78%
Cc1ccc(S(=O)(=O)Nc2cc(Cl)c3oc4c(c3c2)C(=O)CC(C)(C)C4)cc1 | inactive: 144%
COc1cc(C(=O)Nc2ccc(-c3cc(C(F)(F)F)nn3-c3ccccc3)cc2)cc(OC)c1OC | inactive: 97%
COc1ccccc1CNc1nc(-c2ccco2)nn1S(=O)(=O)c1ccc(Cl)cc1 | inactive: 96%

SMILES | survival
CCc1ccccc1NC(=O)c1cnn2c(C(F)(F)F)cc(-c3ccc(OC)c(OC)c3)nc12 | inactive: 92%
COc1cc(OC)c(NC(=O)Cn2c(=O)cc(C(F)(F)F)c3c(C)nn(C)c32)cc1Cl | inactive: 102%
COCCNC(=O)C(=O)Nc1c2c(nn1-c1ccccc1)CS(=O)(=O)C2 | inactive: 76%
Cc1ccccc1NC(=O)CSc1nc2ccc(NC(=O)COc3ccccc3F)cc2s1 | inactive: 81%
CCOc1ccc(CCNC(=O)Cn2nc(C)c3c(C)n(-c4ccccc4)nc3c2=O)cc1OCC | inactive: 19%
CCOC(=O)c1c(C)sc(-c2c(-c3cc(C)ccc3C)[nH]c3c2c(=O)[nH]c(=O)n3C)c1O | inactive: 72%
CCOC(=O)c1cnn(-c2cccc(F)c2)c1C1CCNCC1 | inactive: 124%
Cc1cccc(NC(=O)Cn2nc(N3CCN(c4ccccc4)CC3)ccc2=O)c1C | inactive: 112%
CCCCN(CC)CCCNC(=O)c1cn(C)c2ccc(S(=O)(=O)N(C)C3CCCCC3)cc2c1=O | inactive: 88%
CCOc1cc(C(=O)NCc2ccc3c(c2)CCN3C(=O)CC)cc(OCC)c1OCC | inactive: 82%
O=C(Nc1ccccc1C(=O)O)c1cccc(S(=O)(=O)N2CCCC2)c1 | inactive: 92%
O=C(NCc1ccc(F)cc1)C1CCN(C(=O)c2cnn(-c3ccccc3)c2-n2cccc2)CC1 | inactive: 80%
COc1ccc2oc(=O)c(C(=O)N(C)Cc3cccnc3)cc2c1 | inactive: 88%
Cc1ccccc1NC(=O)CN(C)S(=O)(=O)c1cccc2nsnc12 | inactive: 79%
COc1cccc(CNC(=O)CCC(=O)N2CC3CCCN3c3ccccc32)c1 (configuration not stated) | inactive: 65%
CCC(Cn1nnc2ccccc2c1=O)NC(=O)Nc1cccc(Cl)c1 (configuration not stated) | inactive: 82%
CCc1cccc(NC(=O)Cn2c(=O)n(CC3CCC(C(=O)NCCc4ccccc4)CC3)c(=O)c3ccccc32)c1 (configuration not stated) | inactive: 126%
COc1ccc(-c2[nH]ncc2C(=O)NCc2ccc(F)cc2)cc1 | inactive: 69%
Cc1ccc(C(=O)N2CCN(c3ccccc3F)CC2)cc1NC(=O)c1nsc2ccccc12 | inactive: 87%
CN(C(=O)Nc1cn(C)c(=O)c2ccccc12)c1ccccc1 | active: -6%
COc1ccc(N2C(=O)C(CC(=O)Nc3ccc(F)cc3)N(CCC3=CCCCC3)C2=O)cc1 (configuration not stated) | inactive: 84%
